The assay relates to NCI-H1618 multicellular tumor spheroid viability. The assay can be described thus: Anticancer human tumor NCI-H1618 cell line growth inhibition.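 For all read-outs here: spheroids exposed to agents for 7 days.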 The note with it: for IC50: compound alone; for viability, T/C: stronger effect = lower value. The source says:
Multicellular complex tumor spheroid response to DNA repair inhibitors in combination with DNA-damaging drugs
This study explores the anticancer activities of DNA-damaging drugs and inhibitors of DNA damage repair, both as single agents and in combinations. Complex tumor spheroids comprised of malignant cells, endothelial cells and mesenchymal stem cells served as an in vitro model for human solid tumors. This model system incorporates physiologically relevant features and patient-derived or established malignant cell lines with clinically relevant genetic alterations from many tumor types. Twenty-six patient-derived or established malignant cell lines were evaluated representing sarcoma, melanoma, small cell lung cancer (SCLC), non-small cell lung cancer (NSCLC), as well as bladder, ovarian and pancreatic cancers. The concentration ranges selected for each drug and investigational agent were based upon clinically achievable concentrations if the clinical Cmax of the agent was known.
Compounds. The drugs and compounds olaparib (NSC753686), talazoparib (NSC767125), berzosertib (NSC777718), elimusertib (NSC800525), nedisertib (NSC802822), VX-984 (NSC792969), AZD-1390 (NSC803789), temozolomide (NSC362856), topotecan (NSC609699), trabectedin (NSC813783), staurosporine (NSC755774), and gemcitabine (NSC613327) were obtained from the National Cancer Institute (NCI) Developmental Therapeutics Program Chemical Repository. The FDA-approved anticancer drug set is available from the Developmental Therapeutics Program at https://dtp.cancer.gov/organization/dscb/obtaining/available_plates.htm. […] The stock solutions were prepared in dimethyl sulfoxide (DMSO, Sigma-Aldrich, St. Louis, MO, cat. D2650) at 400-fold the tested concentration and stored at -70 degrees C. Prior to their use, the stock solutions were diluted in fresh medium and the final DMSO concentration in the assay was 0.25% (v/v). All drugs and investigational agents were tested over a range starting from a high concentration at or near the clinical Cmax and decreasing in half-log increments. If the clinical Cmax for an agent had not been determined, the highest concentration tested was 10 microM.
Cell Lines. The patient-derived cancer cell (PDC) lines: 156681-154-R-J1-PDC, 283228-195-R-J1-PDC, 287954-098-R-J1-PDC, 292921-168-R-J2-PDC, 349418-098-R-PDC, 425362-245-T-J1-PDC, 556581-035-R-J1-PDC, and BL0293-F563-PDC were received from the NCI Patient-Derived Models Repository (PDMR, https://pdmr.cancer.gov). The established cell lines HS-SY-2 (RRID:CVCL_8719), MPNST, and SYO-1 (RRID:CVCL_7146) were obtained from the Sloan Kettering Institute. The alveolar soft parts sarcoma cell line ASPS-1 (RRID:CVCL_S738) was established at the NCI and grown from internal seed stocks. The following established cell lines were purchased from the American Type Culture Collection (ATCC, Manassas, VA): G-401 (ATCC, cat. CRL-1441, RRID:CVCL_0270), SW982 (ATCC, cat. HTB-93, RRID:CVCL_1734), VA-ES-BJ (ATCC, cat. CRL-2138, RRID:CVCL_1785), NCI-H719 (ATCC, cat. CRL-5837, RRID:CVCL_1582), NCI-H196 (ATCC, cat. CRL-5823, RRID:CVCL_1509), NCI-H841 (ATCC, cat. CRL-5845, RRID:CVCL_1595), NCI-H1618 (ATCC, cat. CRL-5879, RRID:CVCL_1480), NCI-H1876 (ATCC, cat. CRL-5902, RRID:CVCL_1503), DMS 114 (ATCC, cat. CRL-2066; RRID:CVCL_1174), NCI-H211 (ATCC, cat. CRL-5824; RRID:CVCL_1529), and SW 1271 (ATCC, cat. CRL-2177, RRID:CVCL_1716). The small cell lung cancer cell line COR-L88 was purchased from Sigma-Aldrich (cat. 92031917-1VL, RRID:CVCL_1141). The non-small cell lung cancer cell lines NCI-H226 (RRID:CVCL_1544) and NCI-H322M (RRID:CVCL_1557) were established at the NCI and grown from internal seed stocks. Pooled donor human umbilical vein endothelial cells (HUVEC, Lonza, cat. CC-2519) and human mesenchymal stem cells (hMSC, Lonza, cat. PT-2501) were purchased from Lonza (Walkersville, MD).
Cell Culture. All cells were maintained in an incubator at 37 degrees C and 5% CO2 with 95% humidity. […]

Certain results were filed several times, with different values. Only these are listed. There may be further records. Results that share an entry are repeated measurements in other runs, samples, wells, individuals or studies. A date in brackets names the month of the test.

Turning to `[2H]c1nc(C)nc([2H])c1-c1cc(NC[C@@H](C)c2cccc3c(C(=O)NC)ccnc23)ncn1`, the IC50 is > 10 µM [2019-11] and < 31.6 nM, > 10 µM [2019-12].

As for `Cn1ncnc1[C@H]1c2n[nH]c(=O)c3cc(F)cc(c23)N[C@@H]1c1ccc(F)cc1`, the IC50 is < 9.49 nM, 171 nM [2019-11] and 156 nM [2019-12].

`CC[C@@]1(O)C(=O)OCc2c1cc1n(c2=O)Cc2cc3c(CN(C)C)c(O)ccc3nc2-1`: the viability, T/C was 89.7, 93.5, 89.4, 91.2, 93% [2019-11] and 26.6, 87, 75.8, 100, 89.7% [2019-12] (compound alone 0.003 µM); 52.1, 35.9, 49.6, 41.1, 51.1% [2019-11] and 16.9, 48.8, 26.5, 40.1, 45.5% [2019-12] (compound alone 0.00949 µM); 1.76, 1.33, 1.25, 1.59, 1.74% [2019-11] and 28.8, 5.05, 4.72, 3.43, 3.71% [2019-12] (compound alone 0.03 µM); 1.26, 1.75, 16.3, 1.85, 1.7% [2019-11] and 30.4, 4.1, 3.54, 4.45, 3.11% [2019-12] (compound alone 0.0949 µM). Also, the IC50 (run of 12/16/2019) was < 3 nM, 9.14 nM, 5.48 nM, 7.86 nM, 8.44 nM.

With `Cn1nnc2c(C(N)=O)ncn2c1=O`, the viability, T/C is 22.8, 24.6, 21.6, 82.1, 95.6, 87.2, 88.5, 84.5, 80, 22.5% (compound alone 1 µM) and 43.6, 67.5, 19.7, 31.5, 46.8, 45.3, 0.95, 32, 66.5, 34.9% (compound alone 100 µM). The IC50 (run of 11/07/2019) was < 1 µM, 1.92 µM, 2.14 µM, 1.97 µM, 2.26 µM, 1.77 µM, 1.87 µM.

In the case of `COc1cc2c(cc1O)CCNC21CSC2c3c(OC(C)=O)c(C)c4c(c3C(COC1=O)N1C(O)C3Cc5cc(C)c(OC)c(O)c5C(C21)N3C)OCO4` (stereo unspecified), the viability, T/C (compound 94.9 pM) is 47.9, 63, 96.5, 75.5, 61.6, 59.2, 87, 45.4, 59.1, 65%.

The values are drawn from PubChem BioAssay AID1845206 (Molecular Pharmacology Branch, DTP, NCI, 2023).
